Data published in patent US20240417463A1 (ADAGENE PTE, published 2024).

T1: mCD47-ECD/His protein (Sinobiological) (mouse, UniProt Q61735 19-140, limits assumed)
T1 construct: extracellular domain; Bought protein; also called mouse CD47; not shown: His tag
T1 sequence (looked up): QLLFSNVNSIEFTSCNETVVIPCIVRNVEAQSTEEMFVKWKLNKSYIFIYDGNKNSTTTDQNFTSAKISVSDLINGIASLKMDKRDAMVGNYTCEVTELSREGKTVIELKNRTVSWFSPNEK

B1: TY26896 (antibody, human IgG1, kappa)
heavy: EVQLVESGGGLVQPGGSLRLSCAASGFTFTNYAIHWVRQAPGKGLEWVSAISGSGSSTYYADSVKGRFTISRDNSKNTLYLQLNSLRAEDTAVYYCARRGSYGFGAFDYWGQGTLVTVSS[skipping human IgG1 constant region]
light: DIQLTQSPSSLSASVGDRVTITCRASQTIGRYLNWYQQKPGKAPKLLIYDASNRATGIPSRFSGSGSGTDFTLTISSLQPEDFATYYCQQRYPWPYTFGQGTKVEIKRTVAAPSVFIFPPSDEQLKSGTASVVCLLNNFYPREAKVQWKVDNALQSGNSQESVTEQDSKDSTYSLSSTLTLSKADYEKHKVYACEVTHQGLSSPVTKSFNRGEC
B2: TY26897 (antibody, human IgG1, kappa)
heavy: EVQLVESGGGLVQPGGSLRLSCAASGFTFTNYAIHWVRQAPGKGLEWVSAISGSGSSTYYADSVKGRFTISRDNSKNTLYLQLNSLRAEDTAVYYCARRGSYGFGAFDYWGQGTLVTVSS[skipping human IgG1 constant region with changes]
light: B1 light
B3: TY26899 (antibody, human IgG1, kappa)
heavy: EVQLVESGGGLVQPGGSLRLSCAASGFTFTNYAIHWVRQAPGKGLEWVSAISGSGSSTYYADSVKGRFTISRDNSKNTLYLQLNSLRAEDTAVYYCARRGSYGFGAFDYWGQGTLVTVSS[skipping human IgG1 constant region with changes]
light: EVGSYLTVDYFCDIDPLYCNAGGGPLGLAGSGGSDIQLTQSPSSLSASVGDRVTITCRASQTIGRYLNWYQQKPGKAPKLLIYDASNRATGIPSRFSGSGSGTDFTLTISSLQPEDFATYYCQQRYPWPYTFGQGTKVEIKRTVAAPSVFIFPPSDEQLKSGTASVVCLLNNFYPREAKVQWKVDNALQSGNSQESVTEQDSKDSTYSLSSTLTLSKADYEKHKVYACEVTHQGLSSPVTKSFNRGEC
B4: TY26294 (antibody, human IgG4 S228P, kappa)
heavy: EVQLVESGGGLVQPGGSLRLSCAASGFTFTNYAIHWVRQAPGKGLEWVSAISGSGSSTYYADSVKGRFTISRDNSKNTLYLQLNSLRAEDTAVYYCARRGSYGFGAFDYWGQGTLVTVSSASTKGPSVFPLAPCSRSTSESTAALGCLVKDYFPEPVTVSWNSGALTSGVHTFPAVLQSSGLYSLSSVVTVPSSSLGTKTYTCNVDHKPSNTKVDKRV[skipping human IgG4 Fc with S228P (EU numbers)]
light: B3 light
B5: TY26898 (antibody, human IgG1, kappa)
heavy: B1 heavy
light: B3 light
notes: also called masked antibody TY26898

target: T2, cynoCD47-ECD/His protein (Sinobiological) (cynomolgus monkey, UniProt A0A2K5X4H8 19-141); assay: ELISA, coated cynoCD47-ECD/His
T2 construct: Bought protein; also called cynomolgus monkey CD47; Monkey CD47
T2 sequence (A0A2K5X4H8 entry or part of it limits assumed): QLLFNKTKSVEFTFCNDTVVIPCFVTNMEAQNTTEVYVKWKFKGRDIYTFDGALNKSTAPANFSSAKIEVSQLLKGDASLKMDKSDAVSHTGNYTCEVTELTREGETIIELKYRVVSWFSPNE

Row | EC50 [nM] | Binder
1 | 0.43 | B1
2 | 0.58 | B2

target: T3, human CD47 on the cell surface (CEM, Raji and other human tumor cells, human RBCs) (human, UniProt Q08722); assay: flow cytometry on Raji cells, EC50 ratio against TY26899 after cleavage; member found by dividing the values of the 22nd table, batch 3
T3 construct: whole, on cells; also called CD47 on tumor cell surface; CD47 on RBCs

Row | masking efficiency (EC50 uncleaved / EC50 cleaved) [fold] | Binder
3 | 64 | B3

target: T3, human CD47 on the cell surface (CEM, …); assay: flow cytometry, Raji cells, batch 3

Row | EC50 [nM] | max MFI [MFI] | Binder
4 | 27.6 | 150000 | B4
5 | 0.26 | 174000 | B1
6 | 31.1 | 118000 | B5
7 | 0.42 | 213000 | B2
8 | 14.8 | 118000 | B3

target: T3, human CD47 on the cell surface (CEM, …); assay: flow cytometry on Raji cells, EC50 ratio against parental TY26896; member found by dividing the values of the 22nd table, batch 2

Row | masking efficiency (EC50 masked / EC50 parental) [fold] | Binder
9 | 774 | B5

target: T3, human CD47 on the cell surface (CEM, …); assay: flow cytometry on Raji cells, EC50 ratio against parental TY26897; member found by dividing the values of the 22nd table, batch 3

Row | masking efficiency (EC50 masked / EC50 parental) [fold] | Binder
10 | 35 | B3

target: T3, human CD47 on the cell surface (CEM, …); assay: flow cytometry on CEM cells, EC50 ratio against parental TY26896; member found by dividing the values of the 21st table, batch 1

Row | masking efficiency (EC50 masked / EC50 parental) [fold] | Binder
11 | 1510 | B5

target: T1, mCD47-ECD/His protein (Sinobiological); assay: ELISA, coated mCD47-ECD/His

Row | binding result | Binder
12 | no binding | B4
13 | no binding (tested: 8 µM) | B1
14 | no binding | B5
15 | no binding (tested: 8 µM) | B2
16 | no binding | B3

target: T3, human CD47 on the cell surface (CEM, …); assay: flow cytometry on CEM cells, EC50 ratio against parental TY21446; member found by dividing the values of the 21st table, batch 2

Row | masking efficiency (EC50 masked / EC50 parental) [fold] | Binder
17 | 139 | B4

target: T3, human CD47 on the cell surface (CEM, …); assay: flow cytometry, CEM cells, batch 1

Row | EC50 [nM] | Binder
18 | 520 | B4
19 | 0.27 | B1
20 | 407 | B5
21 | 0.64 | B2
22 | 446 | B3

target: T3, human CD47 on the cell surface (CEM, …); assay: flow cytometry, human RBCs, batch 1

Row | EC50 [nM] | Binder
23 | 482 | B4
24 | 0.2 | B1
25 | 185 | B5
26 | 0.36 | B2
27 | 124 | B3

target: T3, human CD47 on the cell surface (CEM, …); assay: flow cytometry, CEM cells, batch 2

Row | EC50 [nM] | max MFI [MFI] | Binder
28 | 71.2 | 304000 | B4
29 | 0.52 | 334000 | B1
30 | 154 | 324000 | B5
31 | 0.44 | 325000 | B2
32 | 106 | 387000 | B3

target: T4, hCD47-ECD/Fc protein (Sinobiological) (human, UniProt Q08722 fragment, biotinylated in the Octet assay, sites not stated); assay: ELISA, coated hCD47-ECD/Fc, batch 2
T4 construct: extracellular domain; Bought protein; also called human CD47-Fc antigen; recombinant hCD47-ECD/Fc; not shown: Fc part of the bought fusion protein

Row | EC50 [nM] | Binder
33 | 186 | B4
34 | 0.33 | B1
35 | 158 | B5
36 | 0.34 | B2
37 | 160 | B3

target: T3, human CD47 on the cell surface (CEM, …); assay: flow cytometry, human RBCs, batch 2

Row | EC50 [nM] | max MFI [MFI] | Binder
38 | 1100 | 8260 | B4
39 | 0.44 | 14000 | B1
40 | 653 | 2800 | B5
41 | 0.43 | 13100 | B2
42 | 329 | 4860 | B3

target: T3, human CD47 on the cell surface (CEM, …); assay: flow cytometry on human RBCs, EC50 ratio against parental TY21446; member found by dividing the values of the 23rd table, batch 2

Row | masking efficiency (EC50 masked / EC50 parental) [fold] | Binder
43 | 2010 | B4

target: T3, human CD47 on the cell surface (CEM, …); assay: flow cytometry on CEM cells, EC50 ratio against TY26898 after cleavage; member found by dividing the values of the 21st table, batch 2

Row | masking efficiency (EC50 uncleaved / EC50 cleaved) [fold] | Binder
44 | 341 | B5

target: T3, human CD47 on the cell surface (CEM, …); assay: flow cytometry on human RBCs, EC50 ratio against parental TY26897; member found by dividing the values of the 23rd table, batch 1

Row | masking efficiency (EC50 masked / EC50 parental) [fold] | Binder
45 | 344 | B3

target: T3, human CD47 on the cell surface (CEM, …); assay: flow cytometry on CEM cells, EC50 ratio against TY26294 after cleavage; member found by dividing the values of the 21st table, batch 2

Row | masking efficiency (EC50 uncleaved / EC50 cleaved) [fold] | Binder
46 | 174 | B4

target: T3, human CD47 on the cell surface (CEM, …); assay: flow cytometry, Raji cells, batch 2

Row | EC50 [nM] | Binder
47 | 335 | B4
48 | 0.46 | B1
49 | 356 | B5
50 | 0.33 | B2
51 | 166 | B3

target: T4, hCD47-ECD/Fc protein (Sinobiological); assay: ELISA, coated hCD47-ECD/Fc, batch 3

Row | EC50 [nM] | Binder
52 | 146 | B4
53 | 0.531 | B1
54 | 202 | B5

target: T3, human CD47 on the cell surface (CEM, …); assay: flow cytometry, Raji cells, batch 1

Row | EC50 [nM] | Binder
55 | 272 | B4
56 | 0.49 | B1
57 | 274 | B5
58 | 0.39 | B2
59 | 156 | B3

target: T3, human CD47 on the cell surface (CEM, …); assay: cell-based or functional assay

Row | Max. Phagocytosis (%), donor A [%] | Max. Phagocytosis (%), donor B [%] | EC50 of macrophage phagocytosis of CEM cells, donor A [nM] | EC50 of macrophage phagocytosis of CEM cells, donor B [nM] | Binder
60 | 15.2 | 5.2 | – | – | B4
61 | 78.8 | 92.2 | 0.22 | 0.16 | B1
62 | 21.2 | 17.8 | – | – | B5
63 | 75.9 | 85.9 | 0.2 | 0.13 | B2
64 | 18.6 | 14.4 | – | – | B3

target: T4, hCD47-ECD/Fc protein (Sinobiological); assay: ELISA, coated hCD47-ECD/Fc, batch 1

Row | EC50 [nM] | Binder
65 | 160 | B4
66 | 0.19 | B1
67 | 42.8 | B5
68 | 0.34 | B2
69 | 64.6 | B3

target: T3, human CD47 on the cell surface (CEM, …); assay: flow cytometry on Raji cells, EC50 ratio against TY26898 after cleavage; member found by dividing the values of the 22nd table, batch 2

Row | masking efficiency (EC50 uncleaved / EC50 cleaved) [fold] | Binder
70 | 891 | B5
